According to patent publication US20230192896A1 (BIOVERATIV THERAPEUTICS, published 2023):

Biological target: T1, non-activatable Factor X (FXn) (Homo sapiens (Human), UniProt P00742, single biotin on the C-terminal BioTag)
T1 construct: also called BIIB-FX-015
Experiment: BLI; class meaning: paragraph 285

T1 sequence (P00742 other isoform, or with tags, fused parts or gaps limits assumed): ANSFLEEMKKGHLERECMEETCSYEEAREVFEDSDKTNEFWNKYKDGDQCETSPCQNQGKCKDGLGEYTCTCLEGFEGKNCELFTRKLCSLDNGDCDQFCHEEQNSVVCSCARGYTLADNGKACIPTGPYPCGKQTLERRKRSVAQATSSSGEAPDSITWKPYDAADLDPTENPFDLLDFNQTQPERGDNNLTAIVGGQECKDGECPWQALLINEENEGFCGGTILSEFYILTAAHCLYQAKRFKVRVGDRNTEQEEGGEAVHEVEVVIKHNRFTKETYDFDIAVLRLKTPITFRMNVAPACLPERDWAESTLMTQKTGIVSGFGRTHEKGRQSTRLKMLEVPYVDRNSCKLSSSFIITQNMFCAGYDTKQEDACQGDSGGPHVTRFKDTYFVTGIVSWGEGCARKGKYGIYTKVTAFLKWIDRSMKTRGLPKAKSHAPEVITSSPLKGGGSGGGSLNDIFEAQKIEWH

B1: BIIB-12-1334 (antibody, V domains shown)
VH: QVQLVESGGGVVQPGRSLRLSCAASGFTFSSYGMHWVRQAPGKGLEWVAVISYDGSNKYYADSVKGRFTISRDNSKNTLYLQMNSLRAEDTAVYYCARVPRKQTGHVDYWGQGTLVTVSS
VL: [here about 100 residues without letters]IGTPWTFGGGTKVEIK
notes: IgG
B1: binds.
